From PubChem BioAssay (NCI)
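All cell lines were grown in 96-well plates and treated with compound for 48 hours. GI50: concentration for 50% inhibition of growth. TGI: concentration producing complete growth inhibition.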

System: NCI-H322M lung
Assay: inhibition of tumour cell growth, NCI panel, 48 h

| SMILES | GI50 | TGI |
| --- | --- | --- |
| COc1ccc(CN2CCc3c(Cl)nc(N)nc3C2=O)c(OC)c1 | 17.9 µM | 57.6 µM |
| COc1ccc(C(=O)c2cc3c(N)c(C(=O)Nc4cccc(Cl)c4)sc3nc2C)cc1 | 1.92 µM | > 33.3 µM |
| NC(=O)C/C=C/CC(N)=O |  | > 100 µM |
| COc1cc2c(cc1OCCCC(=O)Nc1cc(C(=O)Nc3cc(C(=O)Nc4cc(C(=O)NCCCN(C)C)n(C)c4)n(C)c3)n(C)c1)N=C[C@@H]1CCCN1C2=O |  | 27.8 µM |
| CCc1ccc(Cc2ccc(CC)c(NC(=O)C(=O)Cc3nc4ccccc4nc3C)c2CC)c(CC)c1NC(=O)C(=O)Cc1nc2ccccc2nc1C |  | > 100 µM |
| O=C(Nc1ccc(Cl)c(Cl)c1)Nc1ccc(Cl)c([N+](=O)[O-])c1 | 2.03 µM | 7.72 µM |
| COc1ccc([C@H]2c3cc(OC)c(OC)cc3C=C(C=O)C2CO)cc1OC (stereo partly specified) | > 100 µM | > 100 µM |
| CC/C(Cl)=N\OC(=O)Nc1ccc(OC)cc1 |  | 31.1 µM |
| CSc1nc2ccccc2c(=O)n1/N=C1\C(=O)N(CN2CCOCC2)c2ccc(Cl)cc21 |  | > 100 µM |
| O=P(O)(O)OC1C(OP(=O)(O)O)C(OP(=O)(O)O)C(OP(=O)(O)O)C(OP(=O)(O)O)C1OP(=O)(O)O (stereo unspecified) | > 2000 µM | > 2000 µM |
| Cc1c(C(=O)/C=C/c2ccco2)[n+](=O)c2ccccc2n1[O-] |  | > 100 µM |
| Cc1oc2nc1C(=O)NCc1nc(cs1)C(=O)N[C@H](C(C)C)c1nc(cs1)C(=O)N[C@H]2C |  | > 100 µM |
| C(=N\Nc1ncc(-c2cc3cc4c(cc3o2)OCO4)s1)/c1c[nH]c2ccccc12 | 3.37 µM | 15.7 µM |
| Cc1cn(C2CC(O)C(CO)C2C)c(=O)[nH]c1=O (stereo unspecified) |  | > 100 µM |
| Cc1nc2c(cnn2-c2ccnc3c(C(F)(F)F)cccc23)c(=O)o1 | > 100 µM | > 100 µM |
| Cc1c(-c2ccccc2)c(C#N)c2nnn(-c3ccccc3)c(=O)n12 |  | > 100 µM |
| CCOC(=O)c1ccc(-c2cc(C)[nH]n2)[nH]1 |  | > 100 µM |
| C=CCNC1=C2C[C@@H](C)C[C@@H](OC)C(OC(=O)CCCN(C)C)[C@H](C)/C=C(\C)[C@@H](OC(N)=O)[C@H](OC)/C=C\C=C(/C)C(=O)NC(=CC1=O)C2=O (stereo partly specified) |  | 19.6 µM |
| COCCNC(=O)C1C(=O)N(CCOC)C(=O)/C1=N/N (stereo unspecified) |  | > 100 µM |
| CC(C)OC(=O)c1ccc(NCC2=CC(=O)C=CC2=O)cc1Cl |  | > 100 µM |
| CCNC(=S)N/N=C/c1cc(OC)ccc1O |  | > 100 µM |
| COc1ccc2oc(S(=O)(=O)N3CC(CCl)c4ccc([N+](=O)[O-])cc43)cc2c1 (stereo unspecified) |  | > 94.4 µM |
| CSC1=Nc2ccccc2-c2nc(-c3ccccc3)cc(-c3ccccc3)c2C1 |  | > 100 µM |

| SMILES | GI50 | TGI |
| --- | --- | --- |
| CN1CCC(O)C(CNC23CC4CC(CC(C4)C2)C3)C1 (stereo unspecified) |  | > 100 µM |
| O=C(Cn1ccnc1[N+](=O)[O-])NCCO |  | > 100 µM |
| Cc1ccc(S(=O)(=O)NC(=O)NC(Cc2c[nH]c3ccccc23)C(=O)O)cc1 (stereo unspecified) |  | > 100 µM |
| CC1(C)O[C@H](C(=O)O)[C@@H](C(=O)O)O1 |  | > 100 µM |
| CCCC(Sc1nc(N)nc2nc[nH]c12)C(=O)O (stereo unspecified) |  | > 100 µM |
| CC1CN(CCO)CC(C)O1 (stereo unspecified) |  | > 100 µM |
| COC(=O)c1c(OC(C)=O)ccc2c1c1c(OC(C)=O)c3ccccc3c(OC(C)=O)c1n2Cc1cc(OC)cc(OC)c1 |  | > 100 µM |
| C=Nc1ccc([N+](=O)[O-])cc1 |  | > 100 µM |
| O=c1ccc2nc(-c3ccccc3)nn(-c3ccccc3)c-2c1 | 16.9 µM | 30.9 µM |
| COc1ccc(C2SC(N)=Nc3c2c(C)nn3C(=O)c2ccncc2)cc1 (stereo unspecified) |  | > 100 µM |
| COc1cc(Oc2nc3ccccc3nc2C(=O)O)cc(OC)c1OC |  | > 100 µM |
| COc1c(-c2cc(C)c(Cl)c(=O)[nH]2)c(O)c(OC)c2occc12 |  | > 100 µM |
| C=C1C(=O)O[C@@H]2[C@@H]3O[C@@](C)(CC/C=C(\C)CCC[C@@H]2C)[C@H](O)C[C@@H]13 | 15.2 µM | 31.4 µM |
| O=C1COC(c2ccccc2O)=NN1CCCN1CCCC1 |  | > 100 µM |
| C[N+](C)(C)CC(=O)N/N=C(/C=C/c1ccccc1)CC1OC(=O)c2ccccc21 (stereo unspecified) |  | > 100 µM |
| O=C(CCCCCCc1nc2ccc(Br)cc2[nH]1)NO | 0.397 µM | 16.8 µM |
| Cc1ncc(C(=O)Nc2ccc(CN3CCN(C)CC3)c(C(F)(F)F)c2)cc1C#Cc1c(N)ncc2ccc(C#N)cc12 | 1.48 µM | 10.9 µM |
| CN(NC(=O)/C(=C/c1ccc(O)cc1)NC(=O)c1ccccc1)c1ccnc2cc(Cl)ccc12 |  | 40.1 µM |
| C=C1C(=O)OC2C1C(OC(=O)/C(=C/C)COC(C)=O)CC1(CO1)C1C(OC(=O)/C(=C/C)CO)C=C(C)C21 (stereo unspecified) |  | 18.3 µM |
| CCN1CCN(C(=O)[C@]23CC[C@@H](C)[C@H](C)[C@@H]2C2=CC[C@@H]4[C@@]5(C)C/C(=C/c6cccnc6)C(=O)C(C)(C)[C@@H]5CC[C@@]4(C)[C@]2(C)CC3)CC1 | 2.28 µM | 8.27 µM |
| CCSc1ncnc2c(C3OC(CO)C(O)C3O)nsc12 (stereo unspecified) |  | > 100 µM |
| CCN1CCC(C(=O)Nc2n[nH]c3nnc(-c4cccc(F)c4F)cc23)CC1 | 19.2 µM | > 25 µM |
| CC/C=C/[C@@H]1C=C[C@@H]2CCC[C@H]2[C@@H]1CC[C@H](O)[C@H](C)N | 1.63 µM | 3.7 µM |

| SMILES | GI50 | TGI |
| --- | --- | --- |
| CCCCC/C=C1/CC(CO)(COC(=O)CC(C(C)C)C(C)C)OC1=O (stereo unspecified) |  | 35.8 µM |
| COc1c2occc2c(OC)c2c(=O)c(S(=O)(=O)NC(=O)Nc3ccc(Cl)cc3)coc12 |  | > 10 µM |
| c1ccc([CH2][Sn]([CH2]c2ccccc2)([S]c2cccc3cccnc23)[S]c2cccc3cccnc23)cc1 | 0.326 µM | 1.14 µM |
| O=C(Nc1ccccc1)c1cc2c(cc1Cl)Sc1nccn1S2(=O)=O |  | 43.3 µM |
| N#CCCNCCN(CCN(C(=O)Nc1ccccc1)c1ccccc1)C(=O)Nc1ccccc1 |  | > 100 µM |
| CC(=O)NC1(C)CCC(C(C)(C)NC(C)=O)CC1 (stereo unspecified) |  | > 100 µM |
| CC1CN=C(Nc2cccc(C(F)(F)F)c2)S1 (stereo unspecified) |  | > 100 µM |
| Cc1cc(NS(=O)(=O)c2ccc(NC(=O)c3ccc4nc5ccccc5c(Nc5ccc(S(=O)(=O)N=C(N)N)cc5)c4c3)cc2)no1 |  | 58.4 µM |
| CC(=O)N1N=C(c2c(O)ccc3ccccc23)CC1C(=O)c1ccco1 (stereo unspecified) |  | > 100 µM |
| CCCOC(=O)C1CCC(=O)N1C(=O)C(Cl)Cl (stereo unspecified) |  | > 100 µM |
| O=C(Nc1nc2ncn(CCOC(=O)c3ccccc3)c2c(=O)[nH]1)c1ccccc1 |  | > 100 µM |
| Cc1cc2c(cc1-c1cc3c(cc1C)C(C(C)C)=C(O)C(=O)/C3=C\Nc1nc(-c3ccccc3)cs1)/C(=C/Nc1nc(-c3ccccc3)cs1)C(=O)C(O)=C2C(C)C |  | > 100 µM |
| CC(C)CC(=O)NC(Nc1ccc(S(=O)(=O)Nc2ncccn2)cc1)(C(F)(F)F)C(F)(F)F |  | > 100 µM |
| Cc1cc(S(=O)(=O)Nc2nc3ccsc3c(=O)n2N)c(S)cc1Cl |  | > 100 µM |
| COc1c(O)c2ccccc2c2cc(O)ccc12 |  | 39.1 µM |
| O=S(=O)(c1cc(Cl)ccc1Cl)N1CCN(S(=O)(=O)c2cc(Cl)ccc2Cl)CC1 |  | > 100 µM |
| COC1OC(OC)C2C(c3c(C)cc(C)cc3C)=NOC12 (stereo unspecified) |  | > 100 µM |
| Cc1cc(Cl)n2c(nc3ccccc32)c1C#N | 2.33 µM | 9.09 µM |
| FC(F)(F)c1ccc2nc(-c3nc(-c4ccccc4)n4ccccc34)[nH]c2c1 | 3.35 µM | 12.6 µM |
| CN(C(=O)C12C3C4(C(=O)O)C1(C(=O)N(C)C(C)(C)C)C1C2(C(=O)O)C3(C(=O)N(C)C(C)(C)C)C14C(=O)N(C)C(C)(C)C)C(C)(C)C (stereo unspecified) |  | > 100 µM |
| CCN(CC)CCN(C)CC(C)(C)C(=O)/C=C/c1ccccc1 |  | 26.5 µM |
| Nc1ccc2c(c1)C1Oc3ccccc3CC1CO2 (stereo unspecified) |  | > 100 µM |
| COc1cc(/C=C2\C[C@H]3[C@@H]4CC=C5C[C@@H](N6CCCC6)CC[C@]5(C)[C@H]4CC[C@]3(C)[C@H]2O)cc(OC)c1OC |  | 29.6 µM |

| SMILES | GI50 | TGI |
| --- | --- | --- |
| COC1CC(OC2OC(CO)C(O)C(O)C2O)/C(=C\C#N)C(O)C1OC (stereo unspecified) |  | > 100 µM |
| Nc1nc2nc3c(nc2c(=O)[nH]1)CN(c1ccc(C(=O)O)cc1)C3=O |  | > 100 µM |
| Clc1ccc(Cl)c(N/N=C\c2c[nH]c3ccccc23)c1 | 13.2 µM | 27.7 µM |
| COc1cc(-c2cc(-c3ccc(N(C)C)cc3)nc(N3CCC(O)CC3)c2C#N)cc(OC)c1OC | 0.953 µM | > 100 µM |
| Cc1c(CNc2ccc(Cl)c(C(=O)NC(CC(=O)O)C(=O)O)c2)ccc2nc(N)nc(N)c12 (stereo unspecified) | 13.9 µM | > 1000 µM |
| N#Cc1c(N)nn(C(=O)c2ccc(NC(=O)c3ccccn3)cc2)c1-c1ccc(Cl)cc1 | 3.94 µM | > 100 µM |
| CC1=NN(c2cccc(Cl)c2)C2(C1)C(Cl)C(=O)N2c1nc2ccccc2s1 (stereo unspecified) |  | > 100 µM |
| CC(C)(C)c1cc(C(O)(C(=O)O)C(=O)O)cc(C(C)(C)C)c1O |  | > 100 µM |
| CC(C)Oc1cc(OCC(=O)O)cc(C(=O)N(CCC(N)=O)C(=O)Nc2ccc(C(=O)O)cc2OC(C)C)c1 | > 100 µM | > 100 µM |
| CCCCNC(=S)Nn1c(-c2ccccc2)nc2ccccc2c1=O |  | > 100 µM |
| N#Cc1c([N+](=O)[O-])cc(C(F)(F)F)cc1[N+](=O)[O-] |  | 31.3 µM |
| CC(=O)OCC1OC(n2cc(F)c(=O)[nH]c2=O)C(OC(C)=O)C1OC(C)=O (stereo unspecified) |  | > 100 µM |
| CO/C(=N\N=C\c1ccc(Cl)cc1)c1ccncc1 |  | > 100 µM |
| O=[N+]([O-])c1ccc2c(c1)nc(Cc1ccccc1)n2C[C@@H]1CCCN2CCCCC12 (stereo partly specified) |  | 61.9 µM |
| CCC12C=CCN3CC[C@]4(C(=C(C(=O)OC)[C@@H]1Nc1ncnc5c1ncn5C1OC(COC(C)=O)C(OC(C)=O)C1OC(C)=O)Nc1ccccc14)C32 (stereo partly specified) |  | 13.4 µM |
| CCOP1(=O)OCC2OC(n3cnc4c(N)ncnc43)C(O)C2O1 (stereo unspecified) |  | > 100 µM |
| O=c1[nH]nc(-c2ccccc2)c(-c2ccccc2)c1-n1nc(-c2ccccc2)c2ccccc2c1=O |  | > 100 µM |
| O=C1CCC/C=C\C[C@H]2C=C(Cl)C(=O)/C2=C/C[C@H](CCCCC(F)(F)F)OC(=O)CCC/C=C\C[C@H]2C=C(Cl)C(=O)/C2=C/C[C@H](CCCCC(F)(F)F)O1 | 0.755 µM | 2.11 µM |
| COC(=O)C1Cc2c([nH]c3ccccc23)[C@H](CC(C)C)N1 (stereo partly specified) |  | > 100 µM |
| CN(C)C1(C#N)CCC2(CC1)OCCO2 |  | > 100 µM |
| COc1ccc(CCNc2nc3ccccc3c3[nH]c4ccccc4c23)cc1OC | 2.27 µM | 5.38 µM |
| COc1ccc(C(=O)O/N=C2\CCCC\C2=C/c2ccccc2)cc1 |  | > 100 µM |
| CC/C(=C(\c1ccccc1)c1ccc(OCCN(C)C)cc1)c1ccccc1 | 8.18 µM |  |
